Molecules are shown by their SMILES. The campaign covered roughly 150,000 compounds. About 540 (0.36%) showed an effect of 50% or more. This is one part of the list.

The assay relates to Plasmodium falciparum. The assay is described as follows: Primary screen in NF54 nanoGlo assay, in single point, at 2uM, 72h; a lower Z score goes with more inhibition. The conditions noted are these: timepoint 72 hour. It counts as functional, Erythrocyte.
By % Inhibition is commonly meant the change of the read-out against control, counted positive when it falls. `COCC[C@H]1CN(Cc2cnc(C)cn2)CCO1`: the “% Inhibition” value was -2% and the Z score amounted to 0.45.
For `COC(=O)[C@@H]1C[C@@H](O)CN1Cc1cnn(-c2ccccc2)c1`, in that order: -4% and 0.7.
Take `Cc1ccc(C)c(Cn2ccn3nc(-c4ccc5c(c4)OCO5)cc3c2=O)c1`: the “% Inhibition” value is -17% and the Z score stood at 2.12.
For `COc1cccc([C@H]2CCN(C(=O)CCC(=O)c3ccccc3)C2)c1OC`, in that order: -7% and 1.19.
In the case of `COCCn1ccnc1C1CCN(S(=O)(=O)c2sccc2C)CC1`, the “% Inhibition” value was 2% and the Z score was -0.28.
For `CC(C)(C)C(=O)N1CC[C@H](S(C)(=O)=O)C1`, in that order: -10% and 1.75.
For `c1ccc(-c2noc(C3CCN(c4ccc5nncn5n4)CC3)n2)nc1`, the “% Inhibition” value is -18% and the Z score was 2.08.
For the compound `COc1ccc(NC(=O)c2nn(-c3ccccc3)c3ccccc3c2=O)cc1Cl`, the “% Inhibition” value is -9% and the Z score was 1.18.
For `Cc1cnc2c(Cl)c(C(=O)N3CCC[C@@](O)(CN(C)C)C3)nn2c1`, in that order: -8% and 1.04.
`CN(Cc1ccns1)c1cc(C2CC2)nc(C2CC2)n1`: the “% Inhibition” value is reported as -4% and the Z score stood at 0.39.
For `O=C(Nc1cc(CCc2ccccc2)n[nH]1)[C@@H]1CCCO1`, in that order: -1% and 0.14.
For `COc1cc(OC)nc(-c2ccc(C(=O)N3CCC[C@H](C#N)C3)cc2)n1`, in that order: 7% and -1.36.
`O=C(Nc1ccc2c(c1)OCCCO2)C1CC2CCCCC2N1S(=O)(=O)c1ccccc1` (stereo unspecified): the “% Inhibition” value is -9% and the Z score is reported as 1.23.
For `CC(C)c1nc([C@H](CO)NC(=O)c2ccn(C)n2)cs1` the same measures were 6% and -0.84.
For `COc1ccccc1NC(=O)Cn1c(C)nc2c(-c3ccncc3)nsc2c1=O` the same measures were -2% and 0.31.
For `CNc1ccc(S(=O)(=O)NC)cc1N`, the “% Inhibition” value is -9% and the Z score is 1.65.
For `O=C(c1cccs1)N(CCN1CCOCC1)c1nc2ccc(F)cc2s1`, in that order: -9% and 1.2.
As for `COc1ncnc(OC)c1C(=O)N1CCN(c2cccc(C)c2C)CC1`, the “% Inhibition” value came to 0% and the Z score came out at 0.
For `CCCS(=O)(=O)Nc1ncc(Cc2ccc(F)c(C#N)c2)s1`, in that order: -17% and 2.8.
For `COc1cc2c(cc1OC)C(c1ccccc1)N(CN1C(=O)NC3(CCCCC3C)C1=O)CC2` (stereo unspecified), in that order: -7% and 1.37.
For `COc1ccc(-c2cc(C(F)(F)F)c3c(C)nn(-c4nc5ccccc5s4)c3n2)cc1OC`, in that order: 6% and -0.73.
Turning to `COc1cnc(C(C)(C)NC(=O)CC(C2CCC2)C2CCC2)[nH]c1=O`, the “% Inhibition” value was -13% and the Z score amounted to 1.45.
With `O=C(NC1CCCC2OCCC12)N(Cc1ccco1)CC1CCCO1` (stereo unspecified), the “% Inhibition” value is on record as -9% and the Z score was determined as 1.28.

The values above are taken from ChEMBL document CHEMBL4888484, “Replenishing the malaria drug discovery pipeline: Screening and hit evaluation of the MMV Hit Generation Library 1 (HGL1) against asexual blood stage Plasmodium falciparum ,using a nano luciferase reporter read-out” (2022).
